Laboratory results taken from the supplement of paper PMC4466236.
The full ranking holds about 33,000 sequences; the median of “E-score (dimensionless, -0.5 to 0.5)” is about -0.058, and the highest 2% start at about 0.35. The list shows a part of the results.

test system: MvaT; assay: PBM 8-mer E-score (mean of HK and ME arrays) (E-score (dimensionless, -0.5 to 0.5)); higher = stronger relative binding preference; most listed sequences are background and not binding sites
Method in brief: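 Full-length P. aeruginosa MvaT carrying an N-terminal glutathione S-transferase tag was tested by protein binding microarray following a previously described protocol. Two universal double-stranded 60-mer arrays, ME and HK, were used, each with a constant 25-mer primer region and a variable 35-mer region covering all 8-mers. The rank-based E-score is the mean of the two arrays, parsed with a custom script. Its range runs from -0.5 to 0.5 for each 8-mer.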

Row | Sequence | PBM 8-mer E-score
1 | GATTGAGC | -0.101
2 | CAGTAGCA | 0.0532
3 | AATCAGGC | 0.0626
4 | GTTAAAGA | 0.11
5 | AGTATGGA | 0.215
6 | CACGATGA | -0.159
7 | AGCCCGTG | -0.121
8 | ACGTACGA | -0.134
9 | ATGGCGAG | 0.026
10 | CAGCCGTA | -0.0892
11 | ATCTAAGC | 0.00999
12 | ATGTTGCG | 0.105
13 | CATACTAG | 0.203
14 | AGATCAAC | 0.053
15 | AGGTACCA | -0.0452
16 | GCCGAGTA | -0.0638
17 | ATCCAACA | 0.0114
18 | CCTGTATC | 0.0618
19 | AAGGGAAA | 0.0342
20 | CCGAAGCG | -0.161
21 | AACGGGGG | -0.194
22 | ATGGTGTG | 0.0281
23 | ACTTCCAC | 0.089
24 | GCTTTCAC | -0.189
25 | ACGAGGCC | -0.0845

Row | Sequence | PBM 8-mer E-score
26 | AACACAAC | 0.195
27 | AAAGCAAT | 0.163
28 | TGTCCTAA | 0.0665
29 | AAATACCA | 0.196
30 | GAAGCTAC | -0.117
31 | GGGGCGAA | -0.179
32 | AGAGTATC | 0.0211
33 | GGCTTACA | -0.23
34 | TACGTATA | 0.19
35 | AAGGGACA | -0.039
36 | GGATGGCA | -0.137
37 | ATTGTGTG | 0.149
38 | ACCTCCGA | -0.256
39 | ACTGTGCG | -0.0338
40 | ACAACTCT | 0.174
41 | ACAACTGA | 0.0852
42 | CCCACACG | -0.127
43 | AGGTTTTG | 0.0664
44 | CACCCCCG | -0.246
45 | ACCGGTGA | -0.168
46 | GCCCTCCA | -0.396
47 | ATCTACCC | -0.128
48 | CCATTACG | -0.0598
49 | GTCTCAGA | -0.22
50 | CGATAAAC | 0.187

Row | Sequence | PBM 8-mer E-score
51 | GATTGGGC | -0.24
52 | GGAAAACA | 0.161
53 | CTCTATCA | -0.00184
54 | CAAACGTA | -0.000694
55 | ACTGACCT | -0.105
56 | GTACCGTA | 0.0554
57 | GCGTCAGC | -0.199
58 | GCTTGCCC | -0.322
59 | CGCTATAC | -0.134
60 | AGGCTACC | -0.225
61 | ATGTTTTG | 0.164
62 | CAGTACGG | -0.238
63 | GAGAATTA | 0.23
64 | AAGATATT | 0.309
65 | GTATGTTA | 0.288
66 | CGACTCGC | -0.234
67 | GATTAGTA | 0.205
68 | ACCTCCGG | -0.108
69 | AGAATCCA | -0.149
70 | GGGGAATA | 0.0921
71 | TAAAACAA | 0.291
72 | GATTAATA | 0.446
73 | ACCAGACC | -0.123
74 | CCAACGAC | -0.177
75 | ATAACGAC | 0.151

Row | Sequence | PBM 8-mer E-score
76 | AAACCCGT | 0.105
77 | CCGGCTTA | -0.0869
78 | ATCTTCAC | -0.0359
79 | ACGCTTCA | -0.183
80 | GATTCAGA | -0.0136
81 | CCCTACAG | -0.282
82 | CGATCTGA | -0.0733
83 | ACAGCGGC | -0.192
84 | ACATATGT | 0.333
85 | AGCTCCCC | -0.27
86 | GACCGCTC | -0.194
87 | CTCTCCAG | -0.145
88 | ACGGTGTC | -0.226
89 | AAATTGCA | 0.184
90 | CGGAACGA | -0.118
91 | GTCTAACA | 0.109
92 | ATTGAGTC | 0.0584
93 | GTCTACGA | -0.301
94 | AGTTGTCC | 0.106
95 | TGCAGAAA | 0.0834
96 | AGGACAAA | 0.0941
97 | GCGCGATA | 0.0739
98 | CACGTTCA | -0.145
99 | CCCGGTTC | -0.168
100 | AAACCGCA | -0.0461

Row | Sequence | PBM 8-mer E-score
101 | GACCCTGA | -0.26
102 | CATCTATC | 0.0336
103 | TCGGGACA | -0.0289
104 | AGTAGGTG | -0.0642
105 | CAAATTTG | 0.158
106 | TACACCCA | 0.13
107 | GGCGTTTA | -0.0134
108 | GTTTACTA | 0.147
109 | CAGTGCAA | -0.0401
110 | GTTTCTAA | 0.102
111 | ATAAATTA | 0.42
112 | GTTGACGA | 0.00513
113 | CACCATAC | 0.0356
114 | ACCAGTCA | -0.0642
115 | CCAATCCC | -0.189
116 | CAACTCTC | -0.0234
117 | AAGTTAAC | 0.379
118 | CGTATGTC | -0.225
119 | ACTATCTC | 0.146
120 | ACAGCAGA | -0.0795
121 | CCAAAGGG | -0.244
122 | CCTTGCGC | -0.129
123 | CCTACACG | -0.123
124 | GGACATCC | -0.211
125 | CTATGCTA | -0.0938

Row | Sequence | PBM 8-mer E-score
126 | ATATCGAT | 0.273
127 | AAAGCTTC | -0.00541
128 | GCTTCCCA | -0.148
129 | CTATCAAC | 0.028
130 | TTAATGAA | 0.393
131 | GAGTCTAC | -0.0808
132 | CAGGGGGA | -0.274
133 | ATGTTGAC | 0.0371
134 | CGGGTTAG | -0.226
135 | AATTGAGC | 0.0577
136 | CCAACTCC | -0.162
137 | CCCACGAC | -0.179
138 | TCGGGGAA | -0.167
139 | GAGTGAGC | -0.114
140 | GGGAACAA | 0.0324
141 | CGAGGGAA | -0.146
142 | CTATTGGC | 0.0175
143 | AGTCCGCG | -0.225
144 | AAGGTCAG | -0.000821
145 | CGCATAGC | -0.213
146 | AAGCACTC | -0.14
147 | GCGGAGCA | -0.101
148 | AATTTCAC | 0.201
149 | ACTCGTCT | -0.0571
150 | ACATCTTA | 0.196

Row | Sequence | PBM 8-mer E-score
151 | ACGAAGAT | 0.129
152 | ACACTGTC | -0.031
153 | CCAACAAG | -0.0849
154 | AGTGGTCC | -0.327
155 | CCTGGTAC | -0.223
156 | GTAATGTA | 0.327
157 | CTATTTTA | 0.261
158 | ATCGTTAA | 0.247
159 | GTTACACA | 0.0952
160 | AGGGTTCA | -0.0718
161 | CGTTACAG | 0.0767
162 | CTCTATTA | 0.267
163 | CAGAGGGG | -0.244
164 | ACTGTACT | 0.0725
165 | ATAATAGG | 0.291
166 | ATCATGTC | 0.0438
167 | CGTTGGCC | -0.25
168 | ACCCTGTA | -0.127
169 | AAGGCTAG | -0.107
170 | ACTAAGCG | 0.0156
171 | ATCGCAGA | -0.185
172 | ATCGTTTG | -0.00462
